# Test results taken from PMC10668032.
# Some of the results follow. At the low end of the ranking the order means little.
# Molecular target: SIX1-Q177R homeodomain (UniProt Q15475)
# Assay: universal protein binding microarray
# Settings: Universal all-10-mer PBM (8x60K, AMADID 030236), 300 nM GST-tagged protein, Alexa Fluor 488 anti-GST; buffer, salt, pH and temperature not stated; high values mean tight binding; most listed sequences are background and not binding sites; double strand, one strand shown
row,Sequence,binding signal [E-score]
1,GGGACATA,-0.192
2,AACGGGTG,0.314
3,AGGAGGGC,-0.0259
4,AAGGGCCG,-0.0604
5,CCAAACAC,0.383
6,CGAGCCTA,-0.0232
7,AGCGGAGA,-0.1
8,CTTGAGCC,-0.125
9,CATGTAGG,0.0156
10,CTATTCAA,-0.14
11,CAAACGCG,-0.0431
12,GCTAGAGC,-0.167
13,CCGGAACC,0.0928
14,GCTACACA,0.147
15,ACCGCCAC,0.0484
16,CAGTGCCG,-0.0642
17,CTTATAGC,-0.148
18,AAAGTCTT,-0.328
19,CGACGGAG,0.0393
20,GATTTATA,-0.0755
21,ACATGCAG,0.00899
22,AAACATCA,-0.0223
23,AAGTGGAC,0.0215
24,GGCGGAAA,-0.0584
25,CGATGACA,0.231

row,Sequence,binding signal [E-score]
1,ATGAATTA,-0.145
2,AAGACTTA,-0.281
3,GCAAACGC,-0.108
4,CAGTAAAA,-0.0731
5,AGTGTTAA,0.394
6,TGTATGAA,0.181
7,CACATGTG,-0.0488
8,AGTTTCGC,-0.216
9,ACCAACTC,0.169
10,ATCCTGCC,0.011
11,AGAACGCA,-0.155
12,ACCCCCTA,0.337
13,ACCGCATA,0.134
14,TCACGAGA,-0.00998
15,GATGAGCC,0.0214
16,AGGAATCG,-0.0258
17,GCGCCAGA,-0.125
18,CATCCTCC,0.0244
19,ACCACAGA,0.0287
20,AAAACATA,-0.139
21,ACGGGCGC,-0.00059
22,GAGATTGA,-0.0191
23,CCGTATCG,0.12
24,ACGGTGAC,0.0561
25,CCCTATAA,0.000415

row,Sequence,binding signal [E-score]
1,ATTTGACC,0.0109
2,GCGAAACC,0.0372
3,GAAAGGAA,-0.209
4,CCATGAGA,0.0729
5,CCACATGG,0.0704
6,GCACCCGC,0.227
7,AACGTATT,-0.0221
8,ACCGGCAC,0.131
9,ATAGCTTA,-0.139
10,ACGCCGGA,0.173
11,CGCCAAAG,-0.132
12,ATCGAGGA,-0.131
13,GTTACACA,0.267
14,ATGGACCG,-0.292
15,AGGATCTA,-0.211
16,TAGTAAAA,0.119
17,AAATTTAC,-0.0569
18,GGCAACAC,0.414
19,ATCCGAGG,0.165
20,ATACTTAA,-0.0615
21,AAAAGTTA,-0.0323
22,AAAGCTTA,-0.0637
23,CGTTTCAG,-0.0291
24,GATAAATA,-0.037
25,GGACCTAA,-0.0981

row,Sequence,binding signal [E-score]
1,ATGGCAGA,-0.0548
2,ACTGGATG,0.0298
3,ATCGAGCC,-0.0707
4,AAATTCCG,-0.193
5,GTATAGGA,-0.117
6,ATACAGTG,0.13
7,AAACCGGT,-0.0375
8,CCGGAGCA,0.115
9,CTTCACGA,-0.216
10,GGCATTGA,-0.171
11,GCCTAACC,-0.202
12,AGGAATAC,0.0317
13,ATCTTTGC,-0.101
14,CATCCATC,-0.215
15,GCAATGAC,0.118
16,TGTACACA,0.353
17,CGACTTAG,-0.0134
18,AAGGCAGC,-0.274
19,ACGAATAC,-0.047
20,GACGGCGA,-0.214
21,AAAGAACC,-0.00478
22,TCTAATAA,-0.0894
23,ATGATGCC,-0.202
24,AGCCACAT,-0.209
25,CCACTACC,-0.00144

row,Sequence,binding signal [E-score]
1,ATCAAGGG,-0.0047
2,GGTATCGA,0.294
3,ACAGCGAG,0.0679
4,CGTGGTTC,-0.0641
5,AGTGAGAG,-0.104
6,GCCAATAC,-0.138
7,CCGCGTAA,0.0902
8,CGTCCTAC,0.182
9,GAACTCCC,0.146
10,AAACTAGC,-0.0809
11,GCACTTTA,0.00768
12,TCCGCACA,0.0122
13,CGGAATGA,-0.0107
14,GGTTCCGA,0.129
15,CGAACGCA,0.00338
16,ACGGAGGG,0.159
17,ATTCCCTG,-0.167
18,CTGTGATC,-0.0651
19,ATAAAGGG,-0.0489
20,ATGTGGTG,0.271
21,CGATGCGC,-0.164
22,CGTGTTGA,0.358
23,GGTCGAGA,-0.0673
24,CCTTCGCA,0.0537
25,GCCCCCTA,-0.0563

row,Sequence,binding signal [E-score]
1,CAGGCCTG,-0.318
2,CTCACGAG,-0.207
3,GCTTGAGA,-0.175
4,GCTCACGA,-0.281
5,CAGATGGC,-0.0219
6,CATGGTAC,0.0661
7,CATCGCCA,-0.0363
8,TGGGGAAA,-0.153
9,ACGGTAAT,-0.0131
10,GACTAAAC,-0.206
11,ATCGTAGA,-0.004
12,AAACATTC,-0.207
13,CCTGCTAC,0.0495
14,AAGACGTC,-0.379
15,CCAGCATA,-0.0101
16,ATCAAAAA,-0.0931
17,AGTGGGCC,-0.103
18,CCCACCAA,0.135
19,ATTCTTGG,-0.132
20,CCTCACGC,0.01
21,GCAGTGGC,-0.213
22,CAATATAA,-0.0998
23,CTACTTGC,-0.0385
24,AACCTGCT,0.102
25,ACCGTGGG,0.0607

row,Sequence,binding signal [E-score]
1,TTAATAAA,-0.00126
2,GATCCTCA,-0.0107
3,TAGCCCGA,-0.2
4,AATTAATG,0.00237
5,TATTGTCA,-0.0614
6,CAACATAC,0.0667
7,CGACCGCC,0.00712
8,CCAGACCC,0.0644
9,AAAATTTG,-0.245
10,CAATGATC,-0.0312
11,CTCACTCC,-0.0604
12,TATTTACA,0.311
13,AATAGACA,0.187
14,ACTTAGCG,-0.108
15,ATCACCGC,-0.0555
16,CAGATTTC,-0.332
17,GCGCAGTA,-0.0857
18,CTCAGGTA,0.0623
19,AATCAAAG,-0.107
20,ACTTTCAT,-0.206
21,AGTGCAAA,-0.013
22,CCATTGCA,0.103
